The text below walks through data of patent publication US20090240027A1, “INTERMEDIATES FOR MACROCYCLIC COMPOUNDS” (Tranzyme Pharma Inc., priority 2003, published 2009).

In general, pKi refers to the negative decadic logarithm of the Ki, by convention in mol/L. In general, pIC50 refers to −log10 of the IC50, conventionally taken in molar units.

The target of experiment [1] is T1, human motilin receptor (Homo sapiens, UniProt O43193). In words: Competitive radioligand binding assay (Method B1). Also noted: purchased PerkinElmer 6110544; host or cells: CHO cells, stably transfected (membranes). On the procedure: Competitive Radioligand Binding Assay (Motilin Receptor)
T1 sequence (O43193 whole entry): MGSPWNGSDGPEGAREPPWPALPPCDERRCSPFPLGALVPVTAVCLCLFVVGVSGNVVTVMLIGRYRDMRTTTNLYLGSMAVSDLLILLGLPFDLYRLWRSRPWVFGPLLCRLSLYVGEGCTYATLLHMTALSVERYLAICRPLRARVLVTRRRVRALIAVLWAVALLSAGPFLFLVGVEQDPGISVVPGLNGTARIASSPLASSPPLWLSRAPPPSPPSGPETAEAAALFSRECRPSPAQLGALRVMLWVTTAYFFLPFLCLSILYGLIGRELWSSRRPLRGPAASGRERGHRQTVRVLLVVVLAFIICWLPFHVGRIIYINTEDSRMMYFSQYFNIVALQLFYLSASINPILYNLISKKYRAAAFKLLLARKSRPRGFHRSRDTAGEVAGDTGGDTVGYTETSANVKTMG
• Membranes were prepared from CHO cells stably transfected with the human motilin receptor and utilized at a quantity of 1.5 μg/assay point.
Final Test Concentrations (N=11) for Compounds:
Compounds were provided frozen on dry ice at a stock concentration of 10 mM diluted in 100% DMSO and stored at −20° C. until the day of testing. On the test day, compounds were allowed to thaw at room temperature and than diluted in assay buffer according to the desired test concentrations. Under these conditions, the maximum final DMSO concentration in the assay was 0.5%.
Plates are sealed with TopSeal-A, vortexed gently and incubated at room temperature for 2 hours. The reaction is arrested by filtering samples through pre-soaked (0.3% polyethyleneimine, 2 h) Multiscreen Harvest plates using a Tomtec® Harvester (Tomtec, Hamden, Conn.)), washed 9 times with 500 μL of cold 50 mM Tris-HCl (pH 7.4), and than plates are air-dried in a fumehood for 30 minutes. A bottom seal is applied to the plates prior to the addition of 25 μL of MicroScint-0™ to each well.
Data are analyzed by GraphPad™ Prism (GraphPad Software, San Diego, Calif.) using a variable slope non-linear regression analysis.
where total and non-specific binding represent the cpm obtained in the absence or presence of 1 μM motilin, respectively.

Experiment [2] addresses T1, human motilin receptor. In words: Aequorin functional assay (Method B2). The format is cell-based. The arrangement: host or cells: CHO-K1 cells co-expressing Galpha16 and mitochondrially targeted aequorin. The settings on record: antagonist testing against motilin at EC80 (0.5 nM).
[3] abbreviates: Radioligand competitive binding assay, Method B1, values reported as ranges, read-out: Ki (binding activity).
The mark [4] stands for this setting: Table 4, [125I]-motilin competition, read-out: Binding (Ki).

pIC50, pKi: −log10 of the molar value. Like-named read-outs stand apart in the source and are kept apart here.

On to `CC(C)[C@H]1NC(=O)[C@@H](Cc2cccc3ccccc23)NCCOc2ccccc2CCCNC(=O)[C@H](CC2CC2)NC1=O` [Compound 142], for which the pKi on human motilin receptor [1] (setting [3]) and at human motilin receptor [1] (setting [4]) was 7.00 to 9.00 throughout. Moreover, on human motilin receptor [2], the pIC50 is 6.00 to 7.00.

On to `CCC[C@@H]1NC(=O)[C@@H](C(C)C)NC(=O)[C@@H](Cc2csc3ccccc23)NCCOc2ccccc2CCCNC1=O` [Compound 167], for which the pKi on human motilin receptor [1] (setting [3]) and at human motilin receptor [1] (setting [4]) was 7.00 to 9.00 throughout. Further, the pIC50 against human motilin receptor [2] is 7.00 to 9.00.

On to `CCC[C@@H]1NC(=O)[C@@H](C(C)C)NC(=O)[C@@H](Cc2ccsc2)NCCOc2ccccc2CCCNC1=O` [Compound 168], for which the pKi at human motilin receptor [1] (setting [3]) and on human motilin receptor [1] (setting [4]) was 7.00 to 9.00 throughout. The same compound showed a pIC50 against human motilin receptor [2] of 7.00 to 9.00.

Regarding `CC(C)NC[C@@H]1NC(=O)[C@@H](C(C)C)NC(=O)[C@@H](Cc2ccc(Cl)cc2)NCCOc2ccccc2CCCNC1=O` [Compound 212], the pKi on human motilin receptor [1] (setting [3]) and on human motilin receptor [1] (setting [4]) was 7.00 to 9.00 in each case. The pIC50 against human motilin receptor [2] is 7.00 to 9.00.

Take `CC[C@H](C)[C@H](NC(=O)[C@@H]1CCCN1C(=O)[C@@H](NC(=O)[C@@H](N)Cc1ccccc1)C(C)C)C(=O)N[C@@H](Cc1ccccc1)C(=O)N[C@H](C(=O)N[C@@H](Cc1ccc(O)cc1)C(=O)NCC(=O)N[C@@H](CCC(=O)O)C(=O)N[C@@H](CC(C)C)C(=O)N[C@@H](CCC(N)=O)C(=O)N[C@@H](CCCNC(=N)N)C(=O)N[C@@H](CCSC)C(=O)N[C@@H](CCC(N)=O)C(=O)N[C@@H](CCC(=O)O)C(=O)N[C@@H](CCCCN)C(=O)N[C@@H](CCC(=O)O)C(=O)N[C@@H](CCCNC(=N)N)C(=O)N[C@@H](CC(N)=O)C(=O)N[C@@H](CCCCN)C(=O)NCC(=O)N[C@@H](CCC(N)=O)C(=O)O)[C@@H](C)O` [Motilin, motilin, reference compound]: the pKi at human motilin receptor [1] is 9.22.
